Results as given in the supplement of paper PMC10126150.
Values marked as one replicate rest on one cluster of the flow cell; about a third of the high ones do not repeat.

System: ATP
Assay: switch fluorescence ratio, 500 uM ATP over buffer (Cy3 cluster intensity, sum of 5 cycles each) (fold (ratio)); higher = stronger signal-on switching upon ATP binding; sequences stand for … in TCGTCGGCAGCGTCAGATGTGTATAAGAGACAGTTTTTTTTTTTTTTTTTTTTTTTTT…TC
Conditions: aptamer strand: ATP DNA aptamer (quencher-CACCTGGGGGAGTATTGCGGAGGAAGG + anchor), 100 nM annealed; ATP concentration: 500 uM; one replicate
Procedure, shortened: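 The fluorescence ratio divides summed target-cycle Cy3 intensity by summed buffer-cycle Cy3 intensity for each cluster and is averaged per switch-domain sequence. Cy3-labelled switching-strand clusters on a modified Illumina MiSeq flow-cell were annealed to 100 nM quencher-labelled ATP aptamer, then imaged in selection buffer and again after 15 min with 500 uM ATP at 22 °C. Five such cycles were run, with NaOH stripping and re-annealing between them, and clusters outside 100-1000 RFU were excluded.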
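Also: ATP exposure 15 min at 22 °C before imaging.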

Sequence	switch fluorescence ratio
ACTGAGTT	1.04
CATTTTGCAT	0.989
AAGCTCTCAC	1.05
CGAGAGTGTG	1.01
TGGATCATCA	1
GACATGGCTA	0.98
CAGATAAC	0.966
TTGCCACCAA	1
TCTGGTACCA	1.03
AGCTTTT	1.04
GAGGCAGTCA	0.997
CTGACCGCTG	1.16
ATGATCCGCT	1.17
CGGTAAGGCT	1.04
ACACACTTAT	1.2
TTGTGGGATT	0.983
TGCCCGTTCC	1.19
AAGTAAAGGG	1.02
CTGGGCAGCG	0.999
ACTTCACACT	1.42
ACTTGTGACC	0.96
CTGGGAACT	0.988
AAAAGTCCCC	0.976
AAGGAACCTT	1.85
GCGCTCTAGC	1
GTTACTCTAT	0.997

Sequence	switch fluorescence ratio
TATCTGTGGC	1.04
ATCGGGGCCA	0.962
GTTCTGGCG	0.96
CTCTTAACGG	0.998
TATAGCGTCT	0.963
TATGGTGGCA	1.01
TGTTCATCCG	1.33
GTGGAGAGGC	1.02
GCTGCAGCTA	1.02
TCTCATGCAC	1.84
GCATAGGAGC	0.963
TCAACGTTAG	0.994
TCTAGTATAG	0.958
CGTATGCCAC	1.04
GGGAACAAC	0.993
AAGGGTGAAC	1.05
TCACGTCGAA	1.07
GAATCCGAGG	1.04
TCACACCGTC	1.06
TGTTCCAGAA	0.966
GGCCTAGTAG	1
AATTACACTA	1.03
ATGCGGGCAC	1.02
CCCCTCATTT	1.03
TGACACGATC	1.28
GGGTTACGAC	1.03

Sequence	switch fluorescence ratio
CCCCGGGTTA	1.37
AAACGGGATC	0.979
TTTGTCCTTC	1.08
GCCGCTCGTA	0.96
GAGTATTGCC	1.07
TAAAAAGTTC	1.05
GATACAGAGC	1.01
CGGGCTTGAC	1.01
CAAAGTATGC	1.05
CGGATGGTCC	1.01
ATTGCAGTTA	1.01
GGTCATTTGG	1.02
GGGGCGAATG	0.96
GCATCTTGTT	0.944
CGCTGTGAGG	1.01
CGGCGGGTAC	2.05
TTCCAAACCC	1.08
TCTAACTGCT	0.968
AACAAGTCCT	1.04
ATCGTAGCAG	1.01
GTAGCGCCAG	0.998
TTCAGCAGTG	1.01
TTCACGCGCC	1.1
GTTGTTCACT	0.976
ATGGTGGGAA	0.954
GACAGTCTGA	0.992

Sequence	switch fluorescence ratio
AGTTGACGCA	1.03
CAACTAATTG	0.98
GCCGTGACGC	0.994
TTGGTCTCCT	1.02
TGTTCGGTT	1
TTGACGCGAC	3.53
AGTACATACT	1.4
CAGTTGTGCC	1.03
CAGGTAGTAT	0.998
GCTAGACTGT	1.01
ACGTAATCAA	1.15
AAAACGGGTT	1.05
TATTATCCCA	1.04
CGGTGGCCTA	1.02
ACCTGTAAT	0.986
CAAGTCTTGA	0.997
TCAGGAGCGG	0.869
GAAGATGTAA	1.01
TGGGAATAAA	0.968
TCTGCCAACA	1.03
CTTTTCATTA	0.959
AAGGGACAAC	1.04
CGTTCTCCTG	1.01
AGTAATAGA	0.987
AACTCCTAGG	1.26
AGGAGGCCT	1

Sequence	switch fluorescence ratio
GTGCGACGGT	1.01
CATGTGGTAT	0.97
AATCGATA	1
GACTGGCCTG	0.989
CCTATATACC	1.15
CAGTTTTTCT	0.976
TCACGTTCAT	1.05
GCTCTACTGC	1.03
CTGCCAAATT	0.992
TTTATCATAT	1.06
TCCATCCGGC	1.05
GCTCTTTATT	0.995
ATCTACTGCT	1
AGTTGGTGTC	0.921
CGTCGTATCA	0.981
GAACCATTAT	1.02
TTGTATTTCG	1.01
GATATAACTT	1.01
CGCGCATGAT	1.14
TCGCATATTT	3.02
TACTAGTCGT	1.02
TGTGTGTGCG	1.06
GCTTGAAGCG	1.01
ACTACCGCTA	2.02
ACCTCGTTGC	1.11
ATTGAAGCTA	1.01

Sequence	switch fluorescence ratio
AACTAGAATT	1.02
GAAGGGAATT	0.946
GTCGACCGCG	0.972
GCCATTTGTA	0.958
CGTCGTAACG	0.989
AAAGGTGAGG	0.994
CCTTAGGTA	1.01
GAACGGGCTT	0.982
CGATGTAATG	1.04
GTCTTAGAAC	0.992
AAGGCATAGG	0.975
CGGTCTATGG	1.02
AGGGTTTCGC	1.01
AGTATACGCT	1
GGGTGCATTC	1.11
CAAGTTTAGA	1
TGGAAGTCGT	0.999
CATAGCTAGT	1.03
ATCCACGCCC	1.23
TTAAACTAAT	0.987
GGCTGGTCTT	1.01
ATCGGACAGG	1.05
ATAAAGTACC	1.37
TGCACAGGAG	1.22
CTACACTCTG	1.03
AGTGGCCGG	0.938

Sequence	switch fluorescence ratio
TTCATTACCT	1.16
CAAGACTCGA	1.02
CCGGTGTTAT	1.14
AGCTAGAGGT	0.988
ACCGCGCGAG	0.977
GCCAAAGGAT	1.01
TGATGCCGCC	1.13
CCTTGACATT	1.06
TTGCTGAGAG	0.971
TTTCGGGGAG	0.976
CCTTCCTAGT	1.82
ATAGGGGCAA	1.11
ATTCGGAGGA	0.974
AGAGTAAAAC	1.03
AGCATTCATT	0.957
AATAAGCCTA	1.03
AGGAACGAGT	0.915
AATGAATGGT	1.01
CAGATTCGCA	1.01
CGTACGTTAC	2.07
ATATGGGAGA	1
GAATGCACGG	1
CGTTAAATAG	1.08
CATGTCTGAG	1.02
GTAACCCAG	1.07
TGTAGTTATG	0.998

Sequence	switch fluorescence ratio
ATTCTAAACT	1.03
TCTGGGTGTG	1.01
TTGGCGGCGC	1.03
TTCCGTCCCT	1.08
GATTTCGAAG	1.01
CAAGTGCTAC	1.15
TGAATTTAAC	1.01
AGCTTGCGCA	0.973
CGATTTGTTA	1
GCCTGGGGA	1.04
CTACGTGCTC	1.42
CCCAAGTGCT	1.3
GCCCACATTG	1.05
GGGAATTGAG	0.977
TGATAGAACT	0.987
ACTTCATTAG	1.01
TTGACGTTC	1.06
TTATTGCCGG	1
AGGGATCTCA	1
